Test results as given in the supplement of paper PMC11417369.
± gives the standard deviation of the averaged measurements. Some of the results follow.

Tested on: PfAP2-LT AP2 domain (GST-tagged)
Assay: gcPBM binding intensity (ln(normalized median fluorescence intensity)); higher = stronger DNA binding
In short: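 Alexa488 anti-GST antibody, scanned at 488 nm, detected GST-tagged P. falciparum DNA-binding domains that had been expressed in E. coli and incubated for 1 h on an Agilent 4 × 180k array. The array carried primer-extended double-stranded 36-bp intergenic genomic probes and negative controls. Binding intensity is the highest Masliner-normalised natural-log median intensity across replicate spots of either orientation of each probe.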

Sequence | gcPBM binding intensity (ln)
TCTTTTTATGTTCTAGAGCATTTTATTATTTAACAT [CACACA_negctrl_site1699] | 8.71 ± 0.52
ATACTATTTAAATGGGTGCTAAAAATAACAAAAATT | 8.62 ± 0.42
ATATTTTTATATGAGGTGCATATAATGACAATTAAG | 8.7 ± 0.39
GAAGTTAGTGTTGACTGTACATATATATGTATATAT [XGTACX_site7243] | 8.99 ± 0.38
ATTTCTTTTTTTTTTTTTTTTAATGTAAAACATTTT [CACACA_negctrl_site1462] | 8.49 ± 0.51
TTTTCTTTTTGTTCGTGTACACACATGAAATTTATA [XGTACX_site3301] | 9.04 ± 0.35
AAACGTACATAATACACACACATGTATACATATAAA [CACACA_site2048] | 9.49 ± 0.31
TTCCCCCCCAGACACACACACACATACATACCACAT [CACACA_site2305] | 11.1 ± 0.77
AATCGAAATCGTGCACGGACACATGCAGTAGCCGAG [XGTACX_site6001] | 9.06 ± 0.33
ATATATATACACAATAGTACGTGTAATATTATTATT [XGTACX_site2151] | 8.9 ± 0.38
TATACCTATAAATACACACACATATATAAATAAATA [CACACA_site6730] | 9.46 ± 0.28
AGGAAATTTTTTTTTTTTTTTTTTTTTTTTTTTTAC [TGCATGCA_negctrl_site170] | 8.33 ± 0.42
ATAATATATAATATAGTGCATTATTTATTAATTAAT [GTGCAC_site9852] | 8.61 ± 0.45
TGATTATAAAAGTAGGTGCTACAAAAATTACACATT [GTGCAC_site9530] | 8.61 ± 0.51
ATAGATGTCTTCATATGTACATAAATTCAAGTATAT [XGTACX_site7492] | 8.68 ± 0.3
TGATAAGTATACTAAAGTACATGAAAAATAACTTCC [XGTACX_site6908] | 8.83 ± 0.41
TCCTAATGGTTTAATTGTACAAAAAAAAAAAATATA [XGTACX_site322] | 8.35 ± 0.51
CAAAATATTATGAATTGTACATATTTTAAAACGTTT [XGTACX_site1614] | 8.62 ± 0.43
ATGTAGAAGTAATGCACACATATGTATATATATATA [CACACA_site2494] | 9.84 ± 0.37
GGTCTTTTTATGATATGTACTTATATAATATTATAT [XGTACX_site6458] | 9.06 ± 0.35
AACAGCATGAAGTAAAGTACTAGTTTTATTTATTTA [XGTACX_site1116] | 8.69 ± 0.49
TGGATGAGGACATACACACACACATAAGTTGATACA [CACACA_site3423] | 9.66 ± 0.41

Sequence | gcPBM binding intensity (ln)
TTATATTTTAAGAAATGTACATGATATAATTATCAA [XGTACX_site8693] | 8.35 ± 0.41
AATGAAAAGGAACATACACACCCCATATAAATATAT [CACACA_site7588] | 9.62 ± 0.13
TATTTCTTATGAAGGACATGCAATATTATTTATCTC [TGCATGCA_site683] | 8.65 ± 0.44
TTTTTTTTAATTTTCTGTACAAATTTATATATACTA [XGTACX_site4251] | 8.54 ± 0.51
AAATAAAAATTACAAGCATGCATTTTCCTATTTGCA [TGCATGCA_site861] | 8.64 ± 0.35
GTGTAAAAATTAAAGTGTACACATATATATATATAT [XGTACX_site2251] | 9.48 ± 0.54
GAATCACTAATTTTTTTACACACCACAATTTAATTT [CACACA_site8311] | 9.1 ± 0.4
TTTCGAATTAAAGCATGTGAAAATTTTCAAAAAATA [XGTACX_negctrl_site577] | 8.43 ± 0.47
ATAATAATATAATATTCACACAATTGAAATAGTGTA [CACACA_site6083] | 8.61 ± 0.4
ACAAAACATAATTGTTGTACAAAAAGAATTATATAT [XGTACX_site8422] | 9 ± 0.54
TATAAATATACAAAGGTGCATAAAAAGTTATGTTTT [GTGCAC_site9832] | 8.72 ± 0.44
TTTCTATAATATTCTACACACCAACAACAAACATAT [CACACA_site6409] | 8.96 ± 0.28
TTTAAATATATTAATACACACACGATATGTACAAAA [CACACA_site539] | 9 ± 0.4
AAAAAATTTTGAAATTGTACATATATAAAAAATATA [XGTACX_site2629] | 8.47 ± 0.48
GAATAAATTGTATTGTGTACATATAAAAGCATCTAA [XGTACX_site8271] | 8.8 ± 0.4
CTGTACACTTAAACGGTGCAAAAAGAAAAAAAAGAA | 8.8 ± 0.54
GTTGGGTAATTCGTAACACACATAAAATATATATAA [CACACA_site3986] | 8.88 ± 0.57
CACGCGCACCAACACACACACACACCCATATATATA [CACACA_site2204] | 10.3 ± 0.4
TGCCTATGACATGAATGTACATTAAAATTAAATAAA [XGTACX_site7126] | 8.59 ± 0.54
AGACATATTCTTTTTACACACTTGAATAAAAAATAT [CACACA_site1205] | 8.64 ± 0.4
CATTTTATAAAAACAAGTACCCAACATATATATAAT [XGTACX_site5955] | 8.75 ± 0.41
TTTTTTTCTTAAAGATGTACTTTTTAAAAACAATCT [XGTACX_site986] | 8.22 ± 0.67
